Assay [1] concerns the target HiBiT-FZD5-mCherry (NCI-H1703 cells) (mouse) (UniProt Q9EQD0). In words: confocal microscopy of fluorescent ligand on live cells; NCI-H1703 cells stably expressing HiBiT-FZD(4,5,8,10)-mCherry incubated with eGFP-Wnt conditioned medium (1 h in the methods, 3 h in the legend of Figure 1A), then imaged. A general note: The HiBiT peptide binds its large partner to form an active luciferase.

Sequences of proteins named here, by UniProt entry; tags and fusion partners are left off. Residues count along the entry.
UniProt Q9EQD0, residues 27-585: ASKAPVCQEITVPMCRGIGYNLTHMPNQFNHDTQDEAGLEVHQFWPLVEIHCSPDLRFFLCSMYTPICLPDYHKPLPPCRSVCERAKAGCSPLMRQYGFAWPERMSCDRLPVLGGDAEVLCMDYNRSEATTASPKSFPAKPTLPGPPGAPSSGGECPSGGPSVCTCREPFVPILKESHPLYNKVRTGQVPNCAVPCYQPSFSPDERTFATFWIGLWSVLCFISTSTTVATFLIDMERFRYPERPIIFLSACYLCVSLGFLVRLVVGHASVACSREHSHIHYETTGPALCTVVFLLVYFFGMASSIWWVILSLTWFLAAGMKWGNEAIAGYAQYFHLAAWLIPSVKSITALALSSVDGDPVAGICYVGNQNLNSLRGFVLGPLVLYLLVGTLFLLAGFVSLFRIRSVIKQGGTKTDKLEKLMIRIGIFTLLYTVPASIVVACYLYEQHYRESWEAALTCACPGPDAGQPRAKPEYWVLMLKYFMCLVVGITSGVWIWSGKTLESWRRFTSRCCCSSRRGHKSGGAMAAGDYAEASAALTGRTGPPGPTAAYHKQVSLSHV

Assay [2] addresses T1, HiBiT-FZD3-mCherry (UniProt Q61086).
T1 sequence: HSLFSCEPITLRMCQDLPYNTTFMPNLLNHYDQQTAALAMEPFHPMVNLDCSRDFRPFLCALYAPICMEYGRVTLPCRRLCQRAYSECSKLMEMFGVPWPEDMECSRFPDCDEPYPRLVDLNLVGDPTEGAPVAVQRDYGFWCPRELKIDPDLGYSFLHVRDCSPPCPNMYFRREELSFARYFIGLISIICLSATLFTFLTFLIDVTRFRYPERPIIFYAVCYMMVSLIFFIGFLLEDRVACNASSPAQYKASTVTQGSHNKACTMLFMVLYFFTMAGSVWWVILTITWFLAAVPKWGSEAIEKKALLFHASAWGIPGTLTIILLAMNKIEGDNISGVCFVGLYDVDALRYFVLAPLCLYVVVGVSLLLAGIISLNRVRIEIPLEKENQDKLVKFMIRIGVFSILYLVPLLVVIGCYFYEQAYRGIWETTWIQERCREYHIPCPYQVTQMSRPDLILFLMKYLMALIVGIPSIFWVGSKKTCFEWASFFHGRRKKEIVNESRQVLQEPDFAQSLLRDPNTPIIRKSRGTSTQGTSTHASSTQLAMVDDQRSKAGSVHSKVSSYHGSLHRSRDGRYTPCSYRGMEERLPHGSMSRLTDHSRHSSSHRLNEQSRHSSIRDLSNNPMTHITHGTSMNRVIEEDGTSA
Put plainly: FRET or BRET; NanoBiT/BRET association kinetics on live U-2 OS cells stably expressing low levels of HiBiT-FZD-mCherry; LgBiT and Vivazine added; four concentrations of eGFP-Wnt conditioned medium (Wnt3a up to 15.2 nM, Wnt5a up to 17.3 nM, Wnt16 up to 24 nM); 37 °C, DMEM with 5% FBS and 10 mM HEPES, read every 80 s for 300 min; kinetic Kd. (In BRET a luciferase serves as donor, and the signal depends on an acceptor being close.)

This is an account of results in article PMC12153800.

No constants are given. Whether binding was seen depends on the method and setting. For some of these results: In cells and extracts the contact can be indirect. Where a sequence is shown, tags or fusion partners need not be part of it. Some results given as binding are weak or reduced against the parent protein; the word gives no strength.

B1: eGFP-Wnt16 (ligand, UniProt Q9UBV4 30-365)
chain: NWMWLGIASFGVPEKLGCANLPLNSRQKELCKRKPYLLPSIREGARLGIQECGSQFRHERWNCMITAAATTAPMGASPLFGYELSSGTKETAFIYAVMAAGLVHSVTRSCSAGNMTECSCDTTLQNGGSASEGWHWGGCSDDVQYGMWFSRKFLDFPIGNTTGKENKVLLAMNLHNNEAGRQAVAKLMSVDCRCHGVSGSCAVKTCWKTMSSFEKIGHLLKDKYENSIQISDKTKRKMRRREKDQRKIPIHKDDLLYVNKSPNYCVEDKKLGIPGTQGRECNRTSEGADGCNLLCCGRGYNTHVVRHVERCECKFIWCCYVRCRRCESMTDVHTCK
Regarding B1, the results for the binding result in assay [1] and in assay [2] were “binds” and “no binding (tested: 24 nM)”, respectively.

B2: eGFP-Wnt5a (ligand, UniProt P41221 62-380)
chain: IIGAQPLCSQLAGLSQGQKKLCHLYQDHMQYIGEGAKTGIKECQYQFRHRRWNCSTVDNTSVFGRVMQIGSRETAFTYAVSAAGVVNAMSRACREGELSTCGCSRAARPKDLPRDWLWGGCGDNIDYGYRFAKEFVDARERERIHAKGSYESARILMNLHNNEAGRRTVYNLADVACKCHGVSGSCSLKTCWLQLADFRKVGDALKEKYDSAAAMRLNSRGKLVQVNSRFNSPTTQDLVYIDPSPDYCVRNESTGSLGTQGRLCNKTSEGMDGCELMCCGRGYDQFKTVQTERCHCKFHWCCYVKCKKCTEIVDQFVCK
As for B2, the binding result in assay [1] was “binds”; in assay [2], “no binding (tested: 17.3 nM)”.
